Results on 22 molecules are retold here after paper PMC12136788.

T1: UNK ZnF1-3 (human, UniProt Q9C0B0 31-174)
T1 sequence: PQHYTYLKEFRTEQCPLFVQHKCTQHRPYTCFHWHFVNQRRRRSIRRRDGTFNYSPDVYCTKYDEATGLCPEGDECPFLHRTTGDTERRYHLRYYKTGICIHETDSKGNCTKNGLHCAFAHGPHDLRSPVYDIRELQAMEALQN

B1: chr10:79795341:79795342:+_ENSG00000138326_ENST00000360830|hu_mus|FALSE|FALSE (ssRNA)
RNA: GGGAGUUCUACAGUCCGACGAUCGUGGGUUCUGAAUCCAAAUACAAAGAUGACAUCUGGUGUGGUUUUGUACAUUUUGGCCAGCUUUUCCCGAAUUUCUGUCUUUGGUACUGUUGCCUUCCCAGGAUGAAGGACAUCAAUGACCAACAGAGGAUUGAGCAUCA
B2: chr17:62499352:62499353:-_ENSG00000108654_ENST00000581693|hu_hu|FALSE|FALSE (ssRNA)
RNA: GGGAGUUCUACAGUCCGACGAUCGUCUUAUUUGAUCCACAAUCUUCCUUAUUUGGGGUUCAAAGCCCAUAUCAAGCAUUCUAUCUGCUUCAUCAAGGACAAGGUAGGUUGUUCUUCUCAGAUUGGUUUUUCCACACUCUAAAACAACAGAGGAUUGAGCAUCA
B3: chrX:117043865:117043866:-_ENSG00000003096_ENST00000371882|hu_hu|FALSE|FALSE (ssRNA)
RNA: GGGAGUUCUACAGUCCGACGAUCGCGAAGCCAACGACAGGUAGCCUUAAAGAGCUCAAGUUCAGUACAGUGCUUAAGGCUAUUACUGGAAAGCACGAAGGCAAGACGCUCAAAAGGGAGUUUCAAGAACUCCCCUGUGCUCAGCAACAGAGGAUUGAGCAUCA
B4: 106500355_106501660_140_3pUTR_ENSMUSG00000070436_ENSMUST00000094154|mouse|control|control (ssRNA)
RNA: GGGAGUUCUACAGUCCGACGAUCAUCAUUGCCUGCCUUUUUCAUUCUGGGCCGGGCUGGGCUGCUCCGGGACCGACAGGGCAAUCGCUCCUCAGACAGGCUCUGCUCAGCUCACUGCCCCGGGCCCUGGAUCUAUAUAUGGCUCAACAGAGGAUUGAGCAUCA
B5: chr6:38652254:38652255:-_ENSG00000124767_ENST00000373365|hu_hu|hu_hu_hu_mus_False|48_78 (ssRNA)
RNA: GGGAGUUCUACAGUCCGACGAUCCGAGAACUUCAUAGCAGGGAAGUCAAGCUUCUGGAUUAGCGUCAGUCCAAGAACCCUCGUAUAAAAAUCCAGUGACUUCUUAGGAUCCUUAAUUCUUAGCAUCGUUUGCUGCAGUAGAAACAACAGAGGAUUGAGCAUCA
B6: chr22:19452774:19452775:-_ENSG00000070010_ENST00000399523|hu_hu|hu_hu_hu_mus_False|38_98 (ssRNA)
RNA: GGGAGUUCUACAGUCCGACGAUCCUUCUCAUUGUAGUUGAUGGCAAUCACAUCUCCAGUCGUCAGACAGGCGAAGUUUCUCAAUGCAUUUUCUAAUACGGCUUUGGGGUUGGUAAUAUCCAGGAAGUCUGGGCUCUGAGGCUGCAACAGAGGAUUGAGCAUCA
B7: chr3:10015032:10015033:+_ENSMUSG00000027533_ENSMUST00000029046|mus_mus|mus_mus_mus_hu_True|78_88 (ssRNA)
RNA: GGGAGUUCUACAGUCCGACGAUCGUUUUUACCAUCACAAGUGAUGAUACAGUCUGGCUUGGCCAUGGCGCCCAUUUUUCGCAAAGCUAUUCCCACUCCUAGCUCCUUCAUGUAUUCAUCAAAGCCUUUGCUGUCCACCAGGCGCAACAGAGGAUUGAGCAUCA
B8: chrX:71549400:71549401:+_ENSMUSG00000019087_ENSMUST00000019231|mus_hu|mus_mus_mus_hu_False|8_108 (ssRNA)
RNA: GGGAGUUCUACAGUCCGACGAUCGCAAGGAAGAGGAGGAAGCUCUUCAGUCCAGUGCGCUGCAGGGUGGGAAAGCAACAACACGGACACCGUCCCACCCUCAACCCCCCCACUGGCACAGGGUCACAUCUGGGUCAUCAAAGACAACAGAGGAUUGAGCAUCA
B9: chr3:98531265:98531266:-_ENSG00000057019_ENST00000326840|hu_mus|motif|central (ssRNA)
RNA: GGGAGUUCUACAGUCCGACGAUCUCCGAGCAGUUCCACUUUCAUGGCAAUUUUCUGUUGCCACUGGACAGGGUUCACUCGGAUGAAACGUGCAAUAAUUGGUGGCAAAAAGUUAUUACGAACAUCCUUGUGAUAAUCUUUGUUCAACAGAGGAUUGAGCAUCA
B10: chr7:136912681:136912682:-_ENSG00000105894_ENST00000348225|hu_hu|motif|central (ssRNA)
RNA: GGGAGUUCUACAGUCCGACGAUCAAACGCUACUACAAAAAUUUUCUUUUCUUUUUGUUUUUGCUUAUUGUGUACUUAGCGGUAGAUAAUUUUUGAAUACAAAGCCUACGGUACAUAUAAAUGCAAUAGUUAACUGAUCCUGUUCAACAGAGGAUUGAGCAUCA
B11: chr8:74858975:74858976:-_ENSG00000154582_ENST00000284811|hu_mus|hu_hu_hu_mus_True|88_88 (ssRNA)
RNA: GGGAGUUCUACAGUCCGACGAUCGACCUUGUAGGUAAAAUACAUGCAUACUUUCGAUAGCACAUGUGAGGGGAUCUCUCUAAAAUUGACCUCGUUGGUUUCAUUCUCAGCAAACUGACCUGGACCACUCAACAUAGCCUUUAUCAACAGAGGAUUGAGCAUCA
B12: chr13:100518589:100518590:+_ENSG00000125246_ENST00000339105|hu_hu|motif|central (ssRNA)
RNA: GGGAGUUCUACAGUCCGACGAUCUUCUCGUGACUGUCUAAGCAGCCCAGCUCCAUCUCGAAAGUCAAUGUACACCAGAUCGGUGGCUUGGAGACCAAAGGCUUUCGCUAUGACAACAAUCUUUUGCCGGGCGUAGAGAAUAUCCAACAGAGGAUUGAGCAUCA
B13: chr5:33455709:33455710:+_ENSG00000113407_ENST00000502553|hu_hu|FALSE|FALSE (ssRNA)
RNA: GGGAGUUCUACAGUCCGACGAUCAGCUUGUUUUUCUUUAAUGAUUUUCUUACACAAAGCCUCCAGAGAAGAGAAAUCAUUGCUAGACACACCCCCUUCUUCGAGGUACAUGUCAUAAUAGAAUCCAUUUUCUAUUGGCGGACCCAACAGAGGAUUGAGCAUCA
B14: chr1:163112212:163112213:-_ENSG00000143248_ENST00000313961|hu_hu|hu_hu_hu_mus_False|1_38 (ssRNA)
RNA: GGGAGUUCUACAGUCCGACGAUCUUUUAUUAUCAGUAAGAGUGAGUUACAUACUAGGCAAAGUAUUGGAUACAAUAAUCAGGAAACAAACACUAUUUUUCUUGAAUUUAAAACUUUAUGAGCGAAGUGCUGGCACAGGAUUUACAACAGAGGAUUGAGCAUCA
B15: chr4:17845017:17845018:+_ENSG00000109805_ENST00000514176|hu_mus|hu_hu_hu_mus_False|48_88 (ssRNA)
RNA: GGGAGUUCUACAGUCCGACGAUCGCUCUCUUAACUUGUAUCUUCAUGAGAAAUUGGUGCAAGGUUAAGUUUACUUUUCUGUAGCGCGCGGUUUUGGGCUCGUCUGGGUAAUCUCAUCUUCAUUUCUGAUGGUGGUUCAUGAUCCAACAGAGGAUUGAGCAUCA
B16: chr4:117558906:117558907:-_ENSMUSG00000033379_ENSMUST00000036380|mus_hu|FALSE|FALSE (ssRNA)
RNA: GGGAGUUCUACAGUCCGACGAUCUGGAGGAGCCGGUAAUAUAGAUGCCCCAGGCUGCCCCAACCACAGACAGGGAGAUAGCUAGGCCAAUGCCCAGGUUGGACCACAUGAAGGGCGAAGUCUCCGUCAGGAACCUGUUGUGGACAACAGAGGAUUGAGCAUCA
B17: chr9:33280828:33280829:+_ENSG00000086065_ENST00000223500|hu_hu|FALSE|FALSE (ssRNA)
RNA: GGGAGUUCUACAGUCCGACGAUCUCCUAGUCCCAUAAUAUGUGUUUGUUUUACAAGAUAUGCUUGAAUGAUGCAAAUCUAUGAAGCAGGGAUCUGUGGCAAUCCAAAUUCAUCCACCAGAACUCCAUCCUUGUUUUUUGUAUCCAACAGAGGAUUGAGCAUCA
B18: 45071674_45071794_994_CDS_ENSMUSG00000048232_ENSMUST00000052236|mouse|control|control (ssRNA)
RNA: GGGAGUUCUACAGUCCGACGAUCAAUGUCACAGGUCCUUGGGCUCCAGGCCUGGUCCCGACUCUCUAAGUCCAAGGACAUUAAAAAGUCAUGGUCCUCUGCGGGGAGAAAGAUGGGUGAGGACUUGAUAAGGCCCAGCAGGUACAACAGAGGAUUGAGCAUCA
B19: chr11:103723314:103723315:-_ENSMUSG00000034187_ENSMUST00000103075|mus_mus|FALSE|FALSE (ssRNA)
RNA: GGGAGUUCUACAGUCCGACGAUCGACCAGCAGCUCUCCGUCAUCUAGGACUCGGGUCACGGGGUCACCCCACUUGAUGAUCCCAUUCAUAAUGUAACUUGCAUAAUCCUCUUGGUUGGUGCCAAAUGCUGGUUUGAUAUCGUUCAACAGAGGAUUGAGCAUCA
B20: chr17:65740002:65740003:+_ENSG00000130935_ENST00000581375|hu_hu|hu_hu_hu_mus_False|18_108 (ssRNA)
RNA: GGGAGUUCUACAGUCCGACGAUCAACCCGUUCUUGCUCCCUGGACGAACAGGAAGAUUCAUAUUAAAAAAAAUAUAUAUCCAUCAAGUUAGGUGUGGUGGCCACACCUUUACUCCCCACUUCAAUUGAGGUGGAUCUCUGAGUCAACAGAGGAUUGAGCAUCA
B21: chr3:104804989:104804990:-_ENSMUSG00000062127_ENSMUST00000098763|mus_hu|FALSE|FALSE (ssRNA)
RNA: GGGAGUUCUACAGUCCGACGAUCACACAUCAUUACAAUCUGUUGGCCAGUAACAGCUUUUGCAACAUGGGUUAAUACUAAAAUUGUGAAUCAUGGAACUUUUACUUAGCACACACACACACAAUCUACAGCAAACUUAAAUACCAACAGAGGAUUGAGCAUCA
B22: 79558433_79558884_1653_CDS_ENSMUSG00000042524_ENSMUST00000046259|mouse|control|control (ssRNA)
RNA: GGGAGUUCUACAGUCCGACGAUCAUCUCUCUGCAGGAGCCCGCUGCGCGCACCCCUGUCUCCAAGAAGGAACUGCCUGAUCCAGUCAGGGAACUGGGAUUCCACAUCAGCCCUGGCAGCCUGGAUCUUCUGUGGCAGCAGGCCCAACAGAGGAUUGAGCAUCA

The list shows a part of the results.

The experiment deals with T1, UNK ZnF1-3. Nature of the experiment: nsRBNS (natural sequence RNA bind-n-seq); RBNS binding buffer (assumed for nsRBNS): 25 mM Tris pH 7.5, 150 mM KCl, 3 mM MgCl2, 0.01% Triton X-100, 500 ug/ml BSA, 20 U/ml SUPERase-In, 4 C; UNK is unkempt and MSI1 is Musashi-1; names of the RNAs are library labels; protein concentration not given here; high values mean tight binding.
Take B1: the binding signal is 0.961 enrichment R. Molecule B2 returned a binding signal of 0.441 enrichment R.

B3: the binding signal worked out at 0.818 enrichment R.

As for B4, the binding signal amounted to 0.587 enrichment R.

Molecule B5 had a binding signal of 1.08 enrichment R.

The molecule B6 came in with a binding signal of 0.937 enrichment R.

As for B7, the binding signal is 0.553 enrichment R. In turn, B8 returned a binding signal of 1.44 enrichment R. On to B9, for which the binding signal came out at 0.435 enrichment R. Turning to B10, the binding signal stood at 0.617 enrichment R.

For B11, the binding signal was 0.83 enrichment R. B12 displayed a binding signal of 0.616 enrichment R. Turning to B13, the binding signal is 1.22 enrichment R. Then B14, with 1.33 enrichment R; and B15, with 0.367 enrichment R. On to B16, for which the binding signal stood at 1.05 enrichment R. For the molecule B17, the binding signal was 1.1 enrichment R.

Turning to B18, the binding signal was found to be 1.02 enrichment R.

B19 had a binding signal of 0.754 enrichment R. Molecule B20 displayed a binding signal of 0.932 enrichment R. On to B21, for which the binding signal was determined as 1.88 enrichment R. The molecule B22 gave a binding signal of 0.704 enrichment R.
